Measurements reported in US8410178B2, “CIS 3,4-dihydroxy-2-(3-methylbutanoyl)-5-(3-methylbutyl)-4-(4-methylpentanoyl)cyclopent-2-en-1-derivatives, substantially enantiomerically pure compositions and methods” (KinDex Therapeutics, LLC, priority 2010, dated 2013).

Target: voltage-gated sodium channel type II (SCN2A) (Rattus norvegicus, UniProt P04775)
Details: binding target SCN2A; competitor ligand Veratridine

Compound	nH
CC(C)CCC(=O)[C@]1(O)C(O)=C(C(=O)CC(C)C)C(=O)[C@H]1CCC(C)C [(−)-KDT501]	0.7
CC(C)CCC(=O)[C@@]1(O)C(O)=C(C(=O)CC(C)C)C(=O)[C@@H]1CCC(C)C.[K] [(+)-KDT501, (+)-(4S,5R)-3,4-dihydroxy-2-(3-methylbutanoyl)-5-(3-methylbutyl)-4-(4-methylpentanoyl)cyclopent-2-en-1-one potassium salt]	1.7
